Test results: PubChem BioAssay AID1466 (National Center for Advancing Translational Sciences (NCATS), 2008)
In all, about 200,000 compounds went through this assay and about 10 (0.005%) were called active. The inconclusive results got no clear call from the source; some entries with a clear call stand among them for comparison. Calls follow the shape of the dose curve; as a rule, active = well fitted inhibition curve with a large enough effect; inconclusive = small, poorly fitted or top-dose-only effect, or effect the other way, or another doubt; inactive = no such curve, though single readings can be large or run the other way. A potency beside an inconclusive call is a rough fit, not a confirmed value. Peptide text beside a SMILES is read from it. * marks the point of attachment. Boc = CC(C)(C)OC(=O)*; Bn = c1ccc(C*)cc1; NHNH2 = NN*

Biological target: Lysosomal alpha-glucosidase (Homo sapiens) (UniProt P10253)
Assay: qHTS Assay for Inhibitors of Human alpha-Glucosidase as a Potential Chaperone Treatment of Pompe Disease;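 as to activity change, negative = inhibition: plate controls were uninhibited enzyme wells for no effect and no-enzyme background for full effect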
Settings: purified human GAA, 4-MU-alpha-glucoside fluorescence; activity change, negative = inhibition: at 76.9 µM (top of the series) unless noted
Method in brief: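 Fluorogenic assay: 4 nM human alpha-glucosidase with 400 uM 4-methylumbelliferyl-alpha-D-pyranoside in 50 mM citrate/phosphate, 0.005% Tween-20, pH 5.0, 20 min at room temperature. Compounds tested up to 77 uM; AC50 from Hill fits.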
Potency is read from the fitted curve at half-maximal effect; tags tell the direction and shape of the fitted curve.

Q: With `Cc1ncc(CN2CCN(Cc3ccc(F)cc3)C(CCO)C2)s1` (configuration not stated) as the compound, how does the activity change, negative = inhibition read?
A: Its activity change, negative = inhibition is inconclusive: 18% [activator].

Q: With `COc1cccc(NC(=S)NCCc2ccccn2)c1` as the compound, how does the Potency read?
A: The Potency was inconclusive: 3.55 µM [inhibitor, full curve].

Q: For `COc1ccccc1N1CCN(/N=C/c2ccc(OC)c(OC)c2OC)CC1`, which activity change, negative = inhibition is on record?
A: The activity change, negative = inhibition was inconclusive: -15.2% [inhibitor].

Q: With `COc1cc(C2NC(=S)NC(O)(C(F)(F)F)C2C(=O)c2cccs2)cc(OC)c1O` (configuration not stated) as the compound, how does the Potency read?
A: Its Potency is inconclusive: 12.6 µM [inhibitor, partial curve].

Q: With `CCCCN(CCCNC(=O)C1CCN(S(=O)(=O)N2CCOCC2)CC1)c1ccccc1` as the compound, how does the Potency read?
A: Its Potency is inconclusive: 22.4 µM [activator, partial curve].

Q: Which activity change, negative = inhibition does the source give for `COc1ccc(C(=O)NC2CCN(C(=S)Nc3ccccc3)CC2)cc1` here?
A: The activity change, negative = inhibition was inconclusive: 15% [activator].

Q: `Cc1ccc(-c2noc(CCC(=O)Nc3cccc(C#N)c3)n2)cc1` was tested. Which Potency did it give?
A: Its Potency is inconclusive: 12.6 µM [inhibitor, full curve, poor fit].

Q: How did the activity change, negative = inhibition turn out when `COC(=O)C1=C(C)NC(C)=C(C(=O)OC(C)C)C1c1cccc2nonc12` (configuration not stated) was run?
A: Its activity change, negative = inhibition is inconclusive: -4.36% [inhibitor] [at 15.4 µM].

Q: With `Cc1c(Cl)cccc1N1C(=O)CC(N(O)c2ccccc2)C1=O` (configuration not stated) as the compound, how does the Potency read?
A: The Potency was “inactive”.

Q: How did the activity change, negative = inhibition turn out when `COc1cccc(C2=NOC(C(=O)NC3CCCCC3)C2)c1` (configuration not stated) was run?
A: Its activity change, negative = inhibition is inconclusive: 22.6% [activator].

Q: How did the activity change, negative = inhibition turn out when `N#Cc1ccccc1CSc1nc2ccc(NC(=O)c3ccccc3C(=O)O)cc2s1` was run?
A: Its activity change, negative = inhibition is inconclusive: 17.4% [activator].

Q: For `COc1ccc(S(=O)(=O)N2Cc3ccccc3CC2C(=O)Nc2nccs2)cc1OC` (configuration not stated), which Potency is on record?
A: The Potency was inconclusive: 39.8 µM [inhibitor, partial curve, poor fit].

Q: For `Cc1ccc(-c2nnc(SCC(=O)Nc3nc4c(s3)CCCC4)n2C)cc1`, which Potency is on record?
A: The Potency was inconclusive: 6.31 µM [inhibitor, single point].

Q: For `Cc1ccc(SC(C)C(=O)Nc2ccc(S(=O)(=O)N3CCOCC3)cc2)cc1` (configuration not stated), which activity change, negative = inhibition is on record?
A: The activity change, negative = inhibition was inconclusive: -16.9% [inhibitor].

Q: `CCCc1cc(-c2n[nH]c(=S)n2C(C)c2ccccc2)cs1` (configuration not stated) was tested. Which Potency did it give?
A: The Potency was inconclusive: 1.58 µM [inhibitor, full curve].

Q: For `Cc1ccc(-c2[nH]c(-c3ccc(C(=O)O)cc3)nc2-c2ccccc2)cc1`, which Potency is on record?
A: Its Potency is inconclusive: 35.5 µM [activator, partial curve].

Q: Which Potency does the source give for `COc1ccc(C2SCCN2C(=S)Nc2cccc(Cl)c2)cc1` (configuration not stated) here?
A: Its Potency is inconclusive: 11.2 µM [inhibitor, partial curve].

Q: How did the Potency turn out when `CCn1cc(Br)c(C(=O)Nc2ccc(OC)cc2)n1` was run?
A: The Potency was inconclusive: 56.2 µM [inhibitor, single point].

Q: How did the activity change, negative = inhibition turn out when `FC(F)(F)c1nc(N2CCCC2)ncc1-c1nnnn1-c1ccc(Cl)cc1` was run?
A: Its activity change, negative = inhibition is inconclusive: -15.2% [inhibitor].

Q: For `C/C(N)=C(/C#N)C(=O)CSc1nnc(Cc2ccccc2F)n1N`, which Potency is on record?
A: The Potency was inconclusive: 1 µM [inhibitor, full curve, poor fit].

Q: `Cc1cc(C)n(CC(=O)N2CCCC(C(=O)c3cccc(OC(C)C)c3)C2)n1` (configuration not stated) was tested. Which Potency did it give?
A: Its Potency is inconclusive: 31.6 µM [inhibitor, single point].

Q: With `COc1ccc(S(=O)(=O)n2ccc(-c3cnc(-c4ccccc4)s3)n2)cc1` as the compound, how does the Potency read?
A: The Potency was inconclusive: 11.2 µM [inhibitor, single point].

Q: With `CCSC1=NC(C)(C)C=C(/C=C/c2ccc(Cl)cc2Cl)N1` as the compound, how does the activity change, negative = inhibition read?
A: Its activity change, negative = inhibition is inconclusive: -15.4% [inhibitor].

Q: Which Potency does the source give for `O=C(COc1ccccc1)N1CCN(C(=O)Cc2ccccc2)CC1` here?
A: Its Potency is inconclusive: 0.501 µM [inhibitor, full curve, poor fit].

Q: Which Potency does the source give for `CCOC(=O)C1=C(c2ccccc2)NC(SCC)=C(C#N)C1c1cccnc1` (configuration not stated) here?
A: Its Potency is inconclusive: 17.8 µM [inhibitor, partial curve, poor fit].

Q: Which Potency does the source give for `Cc1nnc(SCC(=O)NCc2ccc3c(c2)OCO3)n1C` here?
A: The Potency was inconclusive: 1.41 µM [inhibitor, full curve, poor fit].

Q: How did the Potency turn out when `CCCNC(=S)Nc1ccc2nc(-c3ccccn3)c(-c3ccccn3)nc2c1` was run?
A: Its Potency is inconclusive: 0.178 µM [inhibitor, full curve].

Q: Which Potency does the source give for `CC1=Nc2ccccc2/C1=C/c1sc(=S)n(-c2cccc(C(=O)O)c2)c1O` here?
A: Its Potency is inconclusive: 56.2 µM [inhibitor, single point].

Q: With `CCN1c2ccccc2-c2nc3ccccc3n2C1c1cccs1` (configuration not stated) as the compound, how does the Potency read?
A: Its Potency is inconclusive: 35.5 µM [activator, partial curve].

Q: `O=[N+]([O-])c1cc(S(=O)(=O)N2CCCCCC2)ccc1Cl` was tested. Which activity change, negative = inhibition did it give?
A: The activity change, negative = inhibition was inconclusive: 16.2% [activator].

Q: `O=C1CC(N(O)c2ccccc2)C(=O)N1Cc1ccccc1` (configuration not stated) was tested. Which Potency did it give?
A: The Potency was “inactive”.

Q: How did the Potency turn out when `CCOc1cc(NS(=O)(=O)c2ccc(OC)cc2)c(OCC)cc1NC(=O)c1ccco1` was run?
A: The Potency was inconclusive: 11.2 µM [inhibitor, single point].

Q: With `CCOC(=O)C1=C(C)NC2=C(C(=O)CC(C)(C)C2)C1c1ccc(N(C)C)cc1` (configuration not stated) as the compound, how does the Potency read?
A: Its Potency is inconclusive: 56.2 µM [inhibitor, single point].

Q: For `CN1CCN(C(=S)c2ccc(-c3cccc(Cl)c3Cl)o2)CC1`, which Potency is on record?
A: Its Potency is inconclusive: 31.6 µM [inhibitor, single point].

Q: Which activity change, negative = inhibition does the source give for `COc1ccc(NC(=O)CSc2nnc(-c3cccs3)n2-c2ccccc2)cc1` here?
A: The activity change, negative = inhibition was inconclusive: -18.8% [inhibitor].

Q: `Cc1ncoc1C(=O)N1CCCC(C(=O)c2cccc(C(F)(F)F)c2)C1` (configuration not stated) was tested. Which activity change, negative = inhibition did it give?
A: Its activity change, negative = inhibition is inconclusive: 2.6% [activator].

Q: Which Potency does the source give for `COc1ccc(C(=O)NC2(C(F)(F)F)C(=O)Nc3c2c(=O)[nH]c(=O)n3CCc2ccc(OC)c(OC)c2)cc1` (configuration not stated) here?
A: The Potency was inconclusive: 31.6 µM [activator, partial curve].

Q: Which Potency does the source give for `CCOc1ccc(-n2nc3ccc(NC(=O)c4ccc5c(c4)OCCO5)cc3n2)cc1` here?
A: Its Potency is inconclusive: 22.4 µM [activator, partial curve].

Q: `Nc1ccc(-c2nc3ccc(-c4nc5ccccc5o4)cc3[nH]2)cc1` was tested. Which Potency did it give?
A: The Potency was inconclusive: 28.2 µM [activator, partial curve].

Q: For `COc1cccc(/C=C2\SC(=O)N(CCC(=O)NNC(=O)c3ccccc3Cl)C2=O)c1`, which Potency is on record?
A: Its Potency is inconclusive: 20 µM [activator, partial curve, poor fit].

Q: How did the Potency turn out when `COc1ccc(OC)c(/C=N/NC(=O)CC(=O)NCc2ccccc2)c1` was run?
A: Its Potency is inconclusive: 50.1 µM [activator, single point].

Q: Which Potency does the source give for `Cc1cc(O)c(-c2ccno2)cc1Cl` here?
A: Its Potency is inconclusive: 11.2 µM [inhibitor, single point].

Q: How did the Potency turn out when `Cc1ccc(N(CCCCN2C(=O)c3ccccc3C2=O)C(=O)c2cccc([N+](=O)[O-])c2)cc1` was run?
A: The Potency was inconclusive: 0.282 µM [activator, full curve, poor fit].

Q: `CC(C)CCNC(=O)c1cc(-c2ccco2)nc2ccccc12` was tested. Which Potency did it give?
A: Its Potency is inconclusive: 22.4 µM [activator, partial curve].

Q: For `CC(C)CC(NC(=O)C(COCc1ccccc1)NC(=O)OC(C)(C)C)C(=O)NN` (configuration not stated) (Boc-Ser(Bn)-Leu-NHNH2; configuration not given here), which Potency is on record?
A: The Potency was inconclusive: 50.1 µM [inhibitor, single point].

Q: With `COc1ccccc1-n1c(SCC(=O)NC2CCS(=O)(=O)C2)nc2cc([N+](=O)[O-])ccc21` (configuration not stated) as the compound, how does the Potency read?
A: The Potency was inconclusive: 56.2 µM [inhibitor, single point].

Q: `CCOC(=O)C1(CCc2ccccc2)CCN(C(=O)Cc2nonc2C)CC1` was tested. Which activity change, negative = inhibition did it give?
A: Its activity change, negative = inhibition is inconclusive: 15% [activator].

Q: With `CCOC(=O)c1ccc(-n2c(=O)[nH]c3ccccc3c2=O)cc1` as the compound, how does the activity change, negative = inhibition read?
A: Its activity change, negative = inhibition is inconclusive: -16% [inhibitor].

Q: `CS(=O)(=O)N(CC(=O)N1CCN(c2ccccc2)CC1)c1cccc(Br)c1` was tested. Which Potency did it give?
A: Its Potency is inconclusive: 56.2 µM [inhibitor, single point].

Q: Which activity change, negative = inhibition does the source give for `CCOc1ccc(N2C(=O)CC(N(Cc3ccco3)C(=O)CC)C2=O)cc1` (configuration not stated) here?
A: The activity change, negative = inhibition was inconclusive: 15.4% [activator].

Q: `Cc1ccc(CSc2nnc(-c3ccc(NS(=O)(=O)c4ccccc4)cc3)o2)cc1` was tested. Which Potency did it give?
A: The Potency was inconclusive: 56.2 µM [inhibitor, single point].

Q: For `O=C(CCc1nnc(C2CCCCC2)o1)N1CCC(Oc2cccnc2)CC1`, which activity change, negative = inhibition is on record?
A: The activity change, negative = inhibition was inconclusive: 13.5% [activator].

Q: Which Potency does the source give for `O=S(=O)(Nc1nc2ccccc2nc1Nc1ccc2c(c1)OCCO2)c1cccs1` here?
A: Its Potency is inconclusive: 56.2 µM [inhibitor, single point].

Q: For `Cc1cnc(C(=O)OCC(=O)Nc2cccc(Cl)c2)cn1`, which activity change, negative = inhibition is on record?
A: Its activity change, negative = inhibition is inconclusive: 1.44% [activator].

Q: With `Cc1ccc(S(=O)(=O)N2CCC(C(=O)N[C@@H](C)C(=O)NC3CCCCC3)CC2)cc1` as the compound, how does the Potency read?
A: The Potency was inconclusive: 1.12 µM [inhibitor, full curve, poor fit].

Q: For `CC(C)COC(=O)N(C)c1ccc(C(O)(C(F)(F)F)C(F)(F)F)cc1`, which Potency is on record?
A: The Potency was inconclusive: 50.1 µM [inhibitor, partial curve, poor fit].

Q: For `CC(C)N=C1SC(CC(=O)Nc2ccccc2)C(=O)N1C(C)C` (configuration not stated), which activity change, negative = inhibition is on record?
A: The activity change, negative = inhibition was inconclusive: 16.1% [activator].

Q: `CCCSc1nnc(N2C(=O)CC(c3ccsc3)C3=C2CCCC3=O)s1` (configuration not stated) was tested. Which Potency did it give?
A: Its Potency is inconclusive: 50.1 µM [inhibitor, single point].

Q: `CCN1C(=O)/C(=C/c2ccc(OC)c(OC)c2)N=C1SCC(=O)NCc1ccco1` was tested. Which Potency did it give?
A: The Potency was inconclusive: 50.1 µM [inhibitor, single point].

Q: For `CSc1nc2nc3c(c(=O)n2[nH]1)CCCC3`, which Potency is on record?
A: Its Potency is inconclusive: 4.47 µM [inhibitor, partial curve, poor fit].

Q: How did the Potency turn out when `Cc1cc(Cl)ccc1OCc1n[nH]c(=S)n1C1CCCCC1` was run?
A: The Potency was inconclusive: 44.7 µM [inhibitor, single point].

Q: Which Potency does the source give for `CC(C)Nc1nnc(SCC(=O)/C=C2\N(C)c3ccccc3C2(C)C)s1` here?
A: Its Potency is inconclusive: 12.6 µM [inhibitor, single point].
